# From PMC4391933
# The chains behind the UniProt entries cited, without tags or fusion partners. Where a name states a change or a piece, a line headed by the entry shows the natural chain unless it says otherwise. A line that says so, or that is headed by a name, gives the form on record, which may keep a tag or linker. Residues count along the entry.
# UniProt P03203: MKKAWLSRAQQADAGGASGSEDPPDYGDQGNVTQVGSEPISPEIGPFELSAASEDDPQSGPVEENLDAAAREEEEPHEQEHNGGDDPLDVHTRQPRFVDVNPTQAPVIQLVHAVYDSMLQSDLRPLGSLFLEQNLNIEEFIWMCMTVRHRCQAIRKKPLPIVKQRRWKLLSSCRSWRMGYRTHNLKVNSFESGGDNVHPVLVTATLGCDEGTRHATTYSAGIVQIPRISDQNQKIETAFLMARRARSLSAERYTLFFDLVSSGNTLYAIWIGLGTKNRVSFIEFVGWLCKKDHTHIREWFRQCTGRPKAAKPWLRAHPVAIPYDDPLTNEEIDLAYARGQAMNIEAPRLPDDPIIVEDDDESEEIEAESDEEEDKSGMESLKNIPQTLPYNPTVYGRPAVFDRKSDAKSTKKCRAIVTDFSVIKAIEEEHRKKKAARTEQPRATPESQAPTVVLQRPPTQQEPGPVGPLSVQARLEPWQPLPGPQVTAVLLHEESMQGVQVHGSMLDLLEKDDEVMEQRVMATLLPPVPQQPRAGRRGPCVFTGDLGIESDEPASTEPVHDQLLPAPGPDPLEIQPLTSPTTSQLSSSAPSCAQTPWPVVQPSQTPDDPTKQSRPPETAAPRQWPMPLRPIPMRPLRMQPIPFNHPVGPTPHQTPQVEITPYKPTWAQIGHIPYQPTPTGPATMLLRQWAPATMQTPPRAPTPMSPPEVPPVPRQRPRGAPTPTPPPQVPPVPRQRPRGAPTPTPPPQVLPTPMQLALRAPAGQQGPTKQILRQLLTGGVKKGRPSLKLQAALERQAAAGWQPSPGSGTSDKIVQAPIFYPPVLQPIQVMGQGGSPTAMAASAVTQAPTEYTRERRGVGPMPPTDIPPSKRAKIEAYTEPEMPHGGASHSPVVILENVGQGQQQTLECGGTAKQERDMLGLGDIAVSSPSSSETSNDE
# Flag-tagged EBNA3B 394–938: residues 394-938 of P03203
# UniProt P62068: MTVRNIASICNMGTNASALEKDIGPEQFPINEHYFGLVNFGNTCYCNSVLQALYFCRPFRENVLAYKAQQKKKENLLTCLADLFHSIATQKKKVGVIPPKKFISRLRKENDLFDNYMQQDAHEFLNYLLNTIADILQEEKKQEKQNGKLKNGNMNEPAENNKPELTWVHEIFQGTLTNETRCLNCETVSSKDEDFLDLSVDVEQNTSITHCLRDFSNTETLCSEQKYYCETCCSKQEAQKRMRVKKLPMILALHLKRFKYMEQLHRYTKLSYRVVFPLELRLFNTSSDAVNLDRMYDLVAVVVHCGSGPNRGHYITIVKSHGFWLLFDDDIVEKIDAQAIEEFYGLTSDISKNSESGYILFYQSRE
# UniProt Q8TAF3: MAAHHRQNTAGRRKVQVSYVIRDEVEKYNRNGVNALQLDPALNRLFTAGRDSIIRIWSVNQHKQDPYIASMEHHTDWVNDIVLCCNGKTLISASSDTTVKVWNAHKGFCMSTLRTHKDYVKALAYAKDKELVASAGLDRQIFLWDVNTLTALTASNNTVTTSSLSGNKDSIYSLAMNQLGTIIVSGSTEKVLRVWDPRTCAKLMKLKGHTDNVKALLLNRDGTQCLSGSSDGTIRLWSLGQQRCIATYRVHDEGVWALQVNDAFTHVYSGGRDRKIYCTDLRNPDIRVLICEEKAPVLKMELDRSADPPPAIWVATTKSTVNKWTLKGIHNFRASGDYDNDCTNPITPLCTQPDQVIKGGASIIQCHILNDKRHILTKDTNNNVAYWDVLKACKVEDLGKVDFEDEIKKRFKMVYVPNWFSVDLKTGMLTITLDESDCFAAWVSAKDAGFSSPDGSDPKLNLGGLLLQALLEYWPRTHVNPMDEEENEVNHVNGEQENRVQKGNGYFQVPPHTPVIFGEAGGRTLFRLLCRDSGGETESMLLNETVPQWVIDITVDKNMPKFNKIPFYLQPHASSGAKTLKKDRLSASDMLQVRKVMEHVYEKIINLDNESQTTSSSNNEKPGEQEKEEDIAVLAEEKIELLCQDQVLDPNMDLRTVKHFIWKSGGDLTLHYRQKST
# Results are given in words; binding and its absence hold for the method and conditions named. In cells and extracts the contact can be indirect. Some binding calls cover weakened binding; strength is not graded here. For some assays here: Sequences can lack the tags named with a protein.
# B1: Xpress tagged WDR20 (protein, UniProt Q8TBZ3 1-569)
# chain: MATEGGGKEMNEIKTQFTTREGLYKLLPHSEYSRPNRVPFNSQGSNPVRVSFVNLNDQSGNGDRLCFNVGRELYFYIYKGVRKAADLSKPIDKRIYKGTQPTCHDFNHLTATAESVSLLVGFSAGQVQLIDPIKKETSKLFNEERLIDKSRVTCVKWVPGSESLFLVAHSSGNMYLYNVEHTCGTTAPHYQLLKQGESFAVHTCKSKSTRNPLLKWTVGEGALNEFAFSPDGKFLACVSQDGFLRVFNFDSVELHGTMKSYFGGLLCVCWSPDGKYIVTGGEDDLVTVWSFVDCRVIARGHGHKSWVSVVAFDPYTTSVEEGDPMEFSGSDEDFQDLLHFGRDRANSTQSRLSKRNSTDSRPVSVTYRFGSVGQDTQLCLWDLTEDILFPHQPLSRARTHTNVMNATSPPAGSNGNSVTTPGNSVPPPLPRSNSLPHSAVSNAGSKSSVMDGAIASGVSKFATLSLHDRKERHHEKDHKRNHSMGHISSKSSDKLNLVTKTKTDPAKTLGTPLCPRMEDVPLLEPLICKKIAHERLTVLIFLEDCIVTACQEGFICTWGRPGKVVSFNP
# Assays:
# [1] = target: Flag-tagged EBNA3B 1–938 (Epstein-Barr virus) (UniProt P03203); assay: co-IP
# [2] = target: Flag-tagged EBNA3B 394–938 (Epstein-Barr virus) (UniProt P03203); assay: co-IP
Molecule,binding [1],binding [2]
Xpress tagged USP46 (from UniProt P62068 1-366) (enzyme),binds,
Xpress tagged WDR48 aa1-634 (WDR48ΔSLD2) (from UniProt Q8TAF3 1-634) (domain or fragment),,no binding
Xpress tagged full length WDR48 (from UniProt Q8TAF3 1-677),binds,binds
B1,binds,
